Assay results as given in PubChem BioAssay AID651820 (National Center for Advancing Translational Sciences (NCATS), 2012).
Where “and” joins values, the source holds several entries; their conditions need not be identical. Equal entries are not always repeated. In all, about 340,000 compounds went through this assay and about 12,000 (3.5%) were called active. This list was built around the results that the source calls inconclusive (neither active nor inactive); the mix of calls is not that of the screen. Calls come from the whole dose curve; as a rule, active = well fitted inhibition curve with a large enough effect; inconclusive = small, poorly fitted or top-dose-only effect, or another doubt; inactive = no such curve, though single readings can be large or run the other way. Potencies of inconclusive entries are doubtful fits and often do not repeat.

experiment: qHTS Assay for Inhibitors of Hepatitis C Virus (HCV); conditions: Huh7.5.1 HCVcc-Cre (HCVcc is cell-culture hepatitis C virus) infection, luciferase reporter, 44 h; activity change, negative = inhibition: at 41.8 µM (top of the series)
In short: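 1,000 cells/well; 4 h culture; + compound; + HCVcc-Cre (~0.5 moi); 44 h; luciferase substrate, RT 15 min; read 15 sec.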
% is set by controls: 0 for no effect and ±100 for the full control effect; potency is the fitted concentration of half-maximal effect; tags give direction and shape of the fitted curve.

Which “activity change, negative = inhibition” value does the source give for `COc1ccc(C)cc1-n1c(SCC(=O)Nc2cc(C)on2)nc2ccccc2c1=O` here?
Its value is inactive: -28.5%.

With `CC(C)CCNC(=S)Nc1ccc([N+](=O)[O-])cc1` as the compound, how does the Potency read?
The Potency was inconclusive: 25.1 µM [inhibitor, single point].

With `COc1ccccc1C(CC(=O)c1ccccc1)CC(=O)c1ccccc1` as the compound, how does the Potency read?
The Potency was inconclusive: 11.2 µM [inhibitor, single point].

Which Potency does the source give for `CCOC(=O)c1oc2ccc(CNC3CCCCC3)c(Cl)c2c1C` here?
Its Potency is inconclusive: 6.31 µM [inhibitor, full curve].

With `N#Cc1nc(-c2ccccc2Cl)oc1N1CCOCC1` as the compound, how does the “activity change, negative = inhibition” value read?
Its value is inactive: -2.96%.

For `COCCCN1C(=O)c2[nH]nc(-c3cc(C)cc(C)c3O)c2C1c1ccc(O)c(OC)c1` (stereo not drawn), which Potency is on record?
The Potency was inconclusive: 8.91 µM [inhibitor, partial curve].

For `CN(C)CC(CCC(CN(C)C)C(O)(c1ccccc1)c1ccccc1)C(O)(c1ccccc1)c1ccccc1` (stereo not drawn), which Potency is on record?
The Potency was active: 11.2 µM.

For `O=C(NC1CCCC1)c1ccc(CSc2nc3ccncc3n2Cc2ccc(F)cc2)cc1`, which Potency is on record?
The Potency was inconclusive: 15.8 µM [inhibitor, single point].

For `N#CCC(=O)Nc1ccc(C(=O)OC(C(=O)Nc2ccc([N+](=O)[O-])cc2Br)c2ccccc2)cc1` (stereo not drawn), which Potency is on record?
Its Potency is inconclusive: 12.6 µM [inhibitor, partial curve].

For `CCOC(=O)c1ccc(-c2c(C(=O)OCC)oc3cc(O)c(CC)cc3c2=O)o1`, which Potency is on record?
The Potency was inconclusive: 4.47 µM [inhibitor, partial curve].

For `Cc1n[nH]c(=S)n1/N=C/c1ccc(-c2ccccc2[N+](=O)[O-])o1`, which “activity change, negative = inhibition” value is on record?
Its value is inactive: -15.7%.

Which Potency does the source give for `CCN(CC)c1ccc2c(C)cc(=O)oc2c1` here?
The Potency was inconclusive: 2.82 µM [inhibitor, full curve].

With `CSc1nc(Cl)c(Cc2ccc(OC(C)C)cc2)c(N(C)C)n1` as the compound, how does the Potency read?
Its Potency is inconclusive: 14.1 µM [inhibitor, partial curve].

With `Cc1ccc2nsnc2c1-n1c(C)nc2ccccc2c1=O` as the compound, how does the Potency read?
Its Potency is inconclusive: 35.5 µM [inhibitor, partial curve, poor fit].

With `CN(/N=C/c1ccc(-c2ccc([N+](=O)[O-])cc2)o1)c1ccccc1` as the compound, how does the Potency read?
Its Potency is inconclusive: 11.2 µM [inhibitor, single point].

For `C(=N\Nc1nc(N2CCCC2)nc(N2CCCC2)n1)/c1ccccc1OCc1ccccc1`, which Potency is on record?
Its Potency is inconclusive: 4.47 µM [inhibitor, full curve, poor fit].

Which Potency does the source give for `CCOC(=O)N1CCN(C(=O)C2CCCN(c3nc4ccc(OCC)cc4s3)C2)CC1` (stereo not drawn) here?
Its Potency is “inactive and inconclusive: 14.1 µM [inhibitor, partial curve]”.

With `Cc1cc(C)c2nc(/N=C(\N)NC(=O)Nc3ccccc3)nc(C)c2c1` as the compound, how does the Potency read?
The Potency was active: 11.2 µM.
